Where a name gives a salt, the structure may show the parent alone. ± gives the standard deviation of the averaged measurements. Whole data set: some 1,900 compounds, median “normalised cell viability (NPI; 0 = phenylarsine oxide control, 1 = DMSO control)” near 1, cut for the lowest 2% near 0.039. Some of the results follow.
Test system: NCI-H1944
Assay: normalised cell viability (NPI; 0 = phenylarsine oxide control, 1 = DMSO control) (fraction of DMSO control); NCI-H1944 is a non-small cell lung cancer line; higher = more viable cells (less compound toxicity)
Details: 6 days
[1] = glucocorticoid arm: hydrocortisone 2.75 uM co-treatment, compound 1 µM
[2] = glucocorticoid arm: hydrocortisone 2.75 uM co-treatment, compound 5 µM
[3] = glucocorticoid arm: hydrocortisone 2.75 uM pre-treated 2 days and continued, compound 1 µM
[4] = glucocorticoid arm: hydrocortisone 2.75 uM pre-treated 2 days and continued, compound 5 µM
[5] = glucocorticoid arm: vehicle, compound 1 µM
[6] = glucocorticoid arm: vehicle, compound 5 µM
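Further: CTB read-out in 384-well plates, mean of triplicate wells, normalised per plate against 1 µM phenylarsine oxide and 0.1% DMSO, compounds added 24 h after seeding.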

SMILES	normalised cell viability [1]	normalised cell viability [2]	normalised cell viability [3]	normalised cell viability [4]	normalised cell viability [5]	normalised cell viability [6]
CN1[C@@H]2CC[C@H]1C[C@@H](OC(=O)C(CO)c1ccccc1)C2 (stereo partly specified) [Atropine sulfate]	0.9843 ± 0.0045	0.945 ± 0.0076	0.994 ± 0.015	0.982 ± 0.04	1 ± 0.0095	1.003 ± 0.0058
CN1[C@@H]2CC[C@H]1C[C@@H](OC(=O)C(CO)c1ccccc1)C2 (stereo partly specified) [Atropine sulfate monohydrate]	1.03 ± 0.015	0.981 ± 0.017	1.03 ± 0.011	1.01 ± 0.021	1.01 ± 0.01	0.9913 ± 0.0015
c1ccc(C2CC2)c(OCC2=NCCN2)c1 [Cirazoline hydrochloride]	0.999 ± 0.011	0.99 ± 0.012	0.983 ± 0.014	0.971 ± 0.015	0.986 ± 0.0036	0.9877 ± 0.0074
CN1[C@@H]2CC[C@H]1C[C@@H](OC(c1ccccc1)c1ccccc1N)C2 (stereo partly specified) [Aminobenztropine]	0.9897 ± 0.0095	0.95533 ± 0.00058	0.9983 ± 0.0015	0.969 ± 0.0014	1.013 ± 0.0058	1.02 ± 0.049
NCC(CP(=O)(O)O)c1ccc(Cl)cc1 (stereo unspecified) [Phaclofen]	0.9913 ± 0.0025	0.981 ± 0.014	1.01 ± 0.013	0.9627 ± 0.0025	0.9813 ± 0.0038	0.992 ± 0.007
COc1ccc(C(CN(C)C)C2(O)CCCCC2)cc1 (stereo unspecified) [Venlafaxine]	1 ± 0.012	0.964 ± 0.032	1 ± 0.023	0.976 ± 0.019	1 ± 0.0087	0.9967 ± 0.0058
CCN(CCCl)Cc1ccccc1Br [DSP-4 hydrochloride]	1.01 ± 0.01	0.979 ± 0.015	1.013 ± 0.0058	0.9985 ± 0.0021	0.995 ± 0.0087	0.996 ± 0.0069
CNC(=O)Oc1ccc2c(c1)[C@]1(C)CCN(C)[C@@H]1N2C [(-)-Physostigmine]	1.01 ± 0.021	0.969 ± 0.0095	1 ± 0.031	0.952 ± 0.03	0.9947 ± 0.0031	0.984 ± 0.011
CN(C)C(=O)Oc1cccc([N+](C)(C)C)c1 [Neostigmine bromide]	0.9983 ± 0.0029	1.017 ± 0.0058	1.013 ± 0.0058	1.04 ± 0.072	0.992 ± 0.0027	0.9993 ± 0.0097
CC(N)c1cccc(Cl)c1Cl (racemic) [(±)-2,3-Dichloro-alpha-methylbenzylamine hydrochloride]	1.006 ± 0.0075	1.02 ± 0.011	1.003 ± 0.0064	1.013 ± 0.0058	0.9993 ± 0.0097	1.001 ± 0.0081
CNC(=O)OCC[N+](C)(C)C [Methylcarbamylcholine chloride]	1.005 ± 0.0087	1.023 ± 0.0058	1.01 ± 0.012	1.05 ± 0.069	1.003 ± 0.0058	1.013 ± 0.0058
Cc1sc2c(c1C)C(c1ccc(Cl)cc1)=N[C@@H](CC(=O)Nc1ccc(O)cc1)c1nnc(C)n1-2	0.995 ± 0.0087	1.02 ± 0.011	0.971 ± 0.011	0.994 ± 0.018	0.962 ± 0.023	0.772 ± 0.017
CP(=O)(O)CCCN	0.999 ± 0.011	1.007 ± 0.0058	0.996 ± 0.012	0.9995 ± 0.00071	0.984 ± 0.0066	0.983 ± 0.016
COc1ccc2c(c1OC)C(=O)OC2C1c2cc3c(cc2CCN1C)OCO3 (single isomer, unassigned; (+)) [(+)-Hydrastine]	0.999 ± 0.011	0.997 ± 0.011	0.993 ± 0.015	0.993 ± 0.019	1.013 ± 0.0058	1.01 ± 0.017
O=C1C=CC(=O)C=C1 [p-Benzoquinone]	1.007 ± 0.0058	1.01 ± 0.012	1.006 ± 0.0075	0.999 ± 0.03	1.01 ± 0.012	0.999 ± 0.011
CC1=NN=C(c2ccc(N)cc2)c2cc3c(cc2C1)OCO3	1.013 ± 0.0058	0.988 ± 0.01	1.01	1.01 ± 0.013	1.01	1.017 ± 0.0058
O=C(O)c1cc[c]([Hg][Cl])cc1 [4-Chloromercuribenzoic acid]	1.002 ± 0.0072	1.01 ± 0.015	0.863 ± 0.23	0.9995 ± 0.00071	0.9907 ± 0.008	1.003 ± 0.0064
C[C@H]1CNCCc2ccc(Cl)cc21 [Lorcaserin HCl]	1.003 ± 0.0064	1.02 ± 0.029	1 ± 0.019	1.02 ± 0.029	1.003 ± 0.0061	0.998 ± 0.0035
CC(=O)c1c(O)c(C)c(O)c(Cc2c(O)c3c(c(C(=O)/C=C/c4ccccc4)c2O)OC(C)(C)C=C3)c1O [Rottlerin]	1	1.04 ± 0.011	1.03 ± 0.023	1.02 ± 0.024	0.993 ± 0.0017	0.372 ± 0.55
CC(=O)[C@H]1CC[C@H]2[C@@H]3CC[C@H]4C[C@H](O)CC[C@]4(C)[C@H]3C(=O)C[C@]12C [5alpha-Pregnan-3alpha-ol-11,20-dione]	1.03 ± 0.01	1.05 ± 0.059	1.033 ± 0.0058	1.03 ± 0.015	1.023 ± 0.0058	1.04 ± 0.015
COc1ccccc1N1CCNCC1 [1-(2-Methoxyphenyl)piperazine hydrochloride]	0.996 ± 0.0017	1.01 ± 0.016	1.02 ± 0.022	1.01 ± 0.017	0.993 ± 0.0017	0.992 ± 0.007
C=C1C[C@@H]2[C@H](CC[C@]3(C)C(=O)CC[C@@H]23)[C@@]2(C)C=CC(=O)C=C12 [Exemestane]	0.821 ± 0.0056	1.06 ± 0.021	0.991 ± 0.0036	1.04 ± 0.01	0.303 ± 0.012	1.023 ± 0.0058
Cc1ccc(-n2nccn2)c(C(=O)N2CCN(c3nc4cc(Cl)ccc4o3)CC[C@H]2C)c1 [Suvorexant (MK-4305)]	1.03 ± 0.03	1.02 ± 0.022	1.04 ± 0.017	0.996 ± 0.016	1.01	1.002 ± 0.007
CCCN1CCO[C@@H]2c3cc(O)ccc3OC[C@H]21 [S(+)-PD 128,907 hydrochloride]	0.976 ± 0.014	0.958 ± 0.026	0.862 ± 0.21	0.969 ± 0.021	0.98 ± 0.0062	0.9823 ± 0.0035
CCCN1CCO[C@@H]2c3cc(O)ccc3OC[C@H]21 (racemic) [(±)-PD 128,907 hydrochloride]	1.002 ± 0.0072	0.976 ± 0.013	1.03 ± 0.064	1 ± 0.016	1.007 ± 0.0058	0.999 ± 0.001
CCCN1CCO[C@@H]2c3cc(O)ccc3OC[C@H]21	1.02 ± 0.017	1.04 ± 0.021	1.01 ± 0.01	1.02 ± 0.021	0.995 ± 0.0044	1.001 ± 0.0078

Source: the supplement of paper PMC8285479
